# Laboratory results from PMC4336329 (PLoS ONE, 2015).
# About 14,000 (4.5%) of roughly 310,000 compounds showed an effect of 50% or more. The effect is printed as a negative number. The list shows a part of the results.
# Biological target: human ether-à-go-go-related gene (hERG) potassium channel (human, UniProt Q12809)
# Assay: primary screen, population patch clamp on CHO cells stably expressing hERG
# 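Further: peak tail current of the secondary pulse compared with the same well before compound.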
# human ether-à-go-go-related gene (hERG) potassium channel, sequence (Q12809 whole entry, looked up): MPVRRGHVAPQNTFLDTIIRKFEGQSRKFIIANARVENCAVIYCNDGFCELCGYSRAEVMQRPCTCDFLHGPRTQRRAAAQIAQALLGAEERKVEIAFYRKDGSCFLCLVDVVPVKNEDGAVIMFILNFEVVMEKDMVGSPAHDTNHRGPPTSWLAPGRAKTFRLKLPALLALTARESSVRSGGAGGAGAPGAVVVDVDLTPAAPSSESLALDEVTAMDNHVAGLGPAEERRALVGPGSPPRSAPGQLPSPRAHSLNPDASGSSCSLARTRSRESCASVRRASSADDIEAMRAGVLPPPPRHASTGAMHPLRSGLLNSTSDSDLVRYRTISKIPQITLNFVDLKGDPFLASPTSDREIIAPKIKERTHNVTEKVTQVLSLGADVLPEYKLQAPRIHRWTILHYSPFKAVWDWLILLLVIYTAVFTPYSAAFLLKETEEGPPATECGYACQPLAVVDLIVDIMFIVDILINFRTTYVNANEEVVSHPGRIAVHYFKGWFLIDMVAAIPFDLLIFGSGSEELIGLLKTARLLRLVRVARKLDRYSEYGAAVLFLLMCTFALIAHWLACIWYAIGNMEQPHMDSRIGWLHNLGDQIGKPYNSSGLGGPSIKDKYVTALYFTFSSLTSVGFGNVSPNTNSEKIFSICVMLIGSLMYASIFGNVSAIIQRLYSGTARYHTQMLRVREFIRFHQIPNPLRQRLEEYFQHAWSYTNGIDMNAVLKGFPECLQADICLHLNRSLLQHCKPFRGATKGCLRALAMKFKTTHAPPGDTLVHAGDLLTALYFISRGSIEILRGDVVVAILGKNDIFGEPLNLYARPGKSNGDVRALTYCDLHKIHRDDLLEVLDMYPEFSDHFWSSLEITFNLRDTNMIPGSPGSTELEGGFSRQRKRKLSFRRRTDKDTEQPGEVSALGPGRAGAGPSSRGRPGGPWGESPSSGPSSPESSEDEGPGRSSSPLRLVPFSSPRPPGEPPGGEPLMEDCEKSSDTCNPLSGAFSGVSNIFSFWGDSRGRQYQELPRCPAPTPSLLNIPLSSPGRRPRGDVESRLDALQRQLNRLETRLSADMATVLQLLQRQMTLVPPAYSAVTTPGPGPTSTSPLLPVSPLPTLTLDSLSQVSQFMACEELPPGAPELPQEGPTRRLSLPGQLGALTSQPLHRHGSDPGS
row,SMILES,"hERG current change (%, negative = inhibition) at 10uM"
1,CCNC(=O)/C(C#N)=C/c1c(N2CC(C)OC(C)C2)nc2ccccn2c1=O (centres unmarked),3.68%
2,CCCN(Cc1ccccc1)C(=S)Nc1ccc(OC(F)F)cc1,-41%
3,O=C1CC(=O)N(c2ccccc2)c2ccccc21,11.3%
4,CN(C)CCCN(C(=O)c1cc2ccccc2oc1=O)c1nc2c(F)cccc2s1.Cl,-41.1%
5,N#Cc1cnc(SCC(=O)N2CCCCC2)nc1N,16.4%
6,COc1ccc(C(NC(=O)C2C3C=CC(C3)C2C(=O)O)c2ccccc2)cc1 (centres unmarked),-4.58%
7,COc1ccc(C(=O)Nc2ccccc2C(=O)N/N=C/c2ccco2)cc1,-41.3%
8,CN(c1ccccc1)c1ccc(/C=C(\CCC(=O)O)c2nc3ccccc3s2)cc1[N+](=O)[O-],44.6%
9,CC(C(=O)Nc1ccccc1-c1ccccc1)N1CCOCC1 (centres unmarked),-2%
10,COc1ccccc1Nc1nc(N2CCOCC2)nc(N2CCOCC2)n1,8.91%
11,Cc1ccc(-n2nc3c(c2NC(=O)c2ccc4c(c2)OCO4)CS(=O)C3)c(C)c1 (centres unmarked),-12.7%
12,COc1ccc(C2C(C(C)=O)=C(O)C(=O)N2CCCn2ccnc2)cc1 (centres unmarked),1.92%
13,O=C1c2ccccc2C(Nc2ccc3c(c2)OCCO3)N1Cc1ccccc1 (centres unmarked),-18.2%
14,O=C(CCN1CCCO1)N1CCCC(N2CCN(c3cccc(C(F)(F)F)c3)CC2)C1 (centres unmarked),-10.2%
15,Cn1c(SCc2ccccc2)nc2c1c(=O)[nH]c(=O)n2C,5.9%
16,COC(=O)c1ccc(C(=O)OC)c(NC(=O)CSCC(=O)O)c1,18.4%
17,CCOC(=O)C1=C(COC(=O)c2cc(OC)c(OC)cc2[N+](=O)[O-])NC(=O)NC1C (centres unmarked),8.98%
18,C/C(=N\NC(=O)c1ccc(-c2ccccc2)cc1)c1cccc(N)c1,31.7%
19,CC(C(=O)OCC(=O)c1ccccc1)N1C(=O)C2C3CCC(C3)C2C1=O (centres unmarked),10.5%
20,CC(=O)Nc1c2c(nn1-c1ccc(Cl)cc1)CSC2,12.7%
21,CN(C)S(=O)(=O)c1ccc(Cl)c(NC(=O)CN2CCCC2)c1,11.5%
22,CCOC(=O)C(C)c1nc2ccccc2[nH]c1=O (centres unmarked),11%
23,CCOC(=O)C1CCCN(CCC(C)c2ccccc2)C1 (centres unmarked),-36.5%

row,SMILES,"hERG current change (%, negative = inhibition) at 10uM"
1,O=C(C(Cl)c1ccccc1)N1CCCC1 (centres unmarked),1.03%
2,COc1ccc(Br)cc1/C=N/Nc1cccc(C(=O)O)c1,-0.694%
3,O=C(CSc1nc2ccccc2[nH]1)Nc1c(F)cccc1F,18.7%
4,CCOC(=O)C(CC(=O)O)N1CCCCC1 (centres unmarked),13%
5,Cc1cc2occ(CC(=O)N(CC(C)C)c3c(N)n(Cc4ccccc4)c(=O)[nH]c3=O)c2cc1C,-18.4%
6,CNC(=S)N1CCC(NC(=O)C(Cc2ccc(F)cc2)NC(C)=O)CC1 (centres unmarked),17.6%
7,Cc1oc2c(CN3CCCCC3C)c(O)ccc2c(=O)c1-c1ccccc1 (centres unmarked),-27.6%
8,COc1ccc(C/C(N)=N/OC(=O)c2cccs2)cc1,12.8%
9,N#Cc1nnn(-c2cc(Cl)cc(Cl)c2)c1N,-1.85%
10,O=C1C=C(Nc2cccc3cccnc23)c2ccccc2C1=O,-4.05%
11,CCOc1ccccc1NC(=O)C1CCCCN1S(=O)(=O)c1ccc(F)cc1 (centres unmarked),-2.26%
12,CCSC(=O)N1CCCCCC1,10.1%
13,O=C(COC(=O)c1cc(Cl)ccc1O)c1ccc2c(c1)OCO2,-16.6%
14,COc1ccc(C)cc1Nc1n[n+](-c2ccccc2)c(-c2ccc(C(=O)O)cc2)s1.[Cl-],18%
15,COc1ccc(CN(C)C(=S)Nc2ccc(Cl)cc2Cl)cc1,10.4%
16,O=C(c1cc(Cl)ccc1[N+](=O)[O-])N1CCc2ccccc2C1,-0.00022%
17,COc1ccc(OCC(O)CNC(=O)c2ccccc2C(=O)O)cc1 (centres unmarked),3.28%
18,COc1cc([C@@H]2CC=C(C(=O)O)[C@H](c3ccccc3F)N2S(=O)(=O)c2ccc(C)cc2)cc(OC)c1OC,26.5%
19,O=C1NCCN1Cc1cccc(Cl)c1,-9.9%
20,CCC(C)CCN1CCN=C1Nc1ccccc1 (centres unmarked),-1.89%
21,COc1cccc(N2CCN(c3ncnc4c3cnn4-c3ccc(C)cc3C)CC2)c1,-0.12%
22,CCCC(C)c1nnc(NC(=O)CCS(=O)(=O)c2ccccc2)s1 (centres unmarked),11.5%
23,Br.O=C(Cn1c(NCCO)nc2ccccc21)c1cccs1,10.7%

row,SMILES,"hERG current change (%, negative = inhibition) at 10uM"
1,CCCCCNCc1ccc(OCc2ccc(Cl)nc2)c(OC)c1,-45.8%
2,CNCCCc1ccccc1.Cl,-38.7%
3,C/C(=N\NC(=O)CN1CCN(S(=O)(=O)c2ccc(C)cc2)CC1)c1cccnc1,-46.9%
4,Cc1ccc(C(=O)NC=C(Cl)Cl)cc1,0.39%
5,O=C(NCc1cccnc1)c1cccnc1-c1nc2ccccc2s1,-14%
6,C/C(CC(=O)Nc1ccc(Cl)cc1)=N\NC(=O)C(=O)N1CCCCC1,15.4%
7,CCN(C(=O)CSc1nc(N)cc(N)n1)C1CCS(=O)(=O)C1 (centres unmarked),7.13%
8,CCC(CC)C(=O)Nc1cccc(C(=O)Nc2nnc(C)s2)c1,21.1%
9,Fc1ccc(NC(=S)Nc2ccccc2Cl)cc1,-4.83%
10,CCOC(=O)c1sc(N(C)C(C)=O)nc1C,15.9%
11,Cc1ccc(/C=C2\SC(=S)N(CCC(=O)N3CCCCC3)C2=O)cc1,14.2%
12,C[C@H](NC(=O)OC(C)(C)C)c1nnc(SCC(=O)Nc2cccc(Cl)c2)o1,-16.1%
13,CCC(C)C(NC(=O)C1CCC(C)CC1)C(=O)Nc1ccc(OC)cc1OC (centres unmarked),-4.26%
14,O=C(OCC(=O)c1cccs1)c1ccc(NC(=O)c2ccco2)cc1,-2.14%
15,O=C(N1CCN(c2ccccn2)CC1)N1c2ccccc2Sc2ccccc21,11.1%
16,CCC(CC)C(=O)OCC(=O)Nc1ccc(S(=O)(=O)N2CCOCC2)cc1OC,-42.1%
17,CC(C)C(=O)Nc1ccc(NC(=O)c2ccc([N+](=O)[O-])cc2Cl)cc1,5.02%
18,COC(=O)c1ccncc1C(=O)Nc1ccc(OC)cc1,0.284%
19,Brc1ccc2c(c1)C(c1cccs1)=NNC(c1cccnc1)=N2,-14.5%
20,Cn1c(Br)nc2c1c(=O)n(Cc1ccccc1)c(=O)n2C,-10.2%
21,CC1(C)Cc2c(cnn2-c2ccc(F)cc2)C(NC(=O)Cn2cncn2)C1 (centres unmarked),7.61%
22,O=C(O)c1ccc2c(=O)n3c(nc2c1)/C(=C/c1ccccc1OC(F)F)CC3,19%
23,CCOC(=O)c1c(S(=O)(=O)Nc2ccc(C)c(F)c2)c(C)n(C)c1C,-2.76%

row,SMILES,"hERG current change (%, negative = inhibition) at 10uM"
1,CCOc1ccccc1CNc1ncnc2ccc(-c3c(C)noc3C)cc12,-5.04%
2,CCn1nc(NC(=O)C(C)C)c2cc3ccc(C)cc3nc21,-0.435%
3,CC(C)(C)c1nn(-c2ccccc2)c2nc(Cl)c(C=O)cc12,17.8%
4,COC(=O)c1cc(C(O)(C(=O)OC)C(F)(F)F)c(/N=C/N(C)C)s1 (centres unmarked),7.12%
5,C=CCN=c1scc(C)n1/N=C/c1ccc(O)c(O)c1,17.7%
6,CC1CCN(C(=O)CSc2nnc(-c3ccc(S(=O)(=O)N4CCOCC4)cc3)n2C)CC1,-4.38%
7,N#Cc1ccc(COn2nnc3ccccc32)cc1,-11.1%
8,Clc1ccccc1OCc1nnc(-c2ccccc2)o1,19.9%
9,COc1ccccc1NC(=S)N1CCCCCC1,7.14%
10,O=C1CN(C(=O)/C=C/c2ccc(Br)cc2)CCN1,1.28%
11,CCCCOC(=O)c1ccc(N/C(=N\S(=O)(=O)c2ccccc2)c2ccccc2)cc1,-3.41%
12,Cn1c(Cn2nnc3ccccc32)nnc1SCC(=O)N1c2ccccc2CCc2ccccc21,-23.6%
13,COc1ncccc1-c1nnn(-c2ccccc2)n1,7.2%
14,C[N+](C)(C)CC(=O)O.[Cl-],0.583%
15,Cc1ccc(NC2CCCN(C(=O)C3CCCCC3)C2)cc1C (centres unmarked),3.03%
16,COC(=O)CCN(c1ccccc1)S(=O)(=O)c1cc(-c2cc(C)no2)ccc1OC,-25.4%
17,CC(NC(=O)CN(C)Cc1ccc(Br)cc1)c1ccccc1 (centres unmarked),-19.3%
18,CCCNC(=O)CCn1cc(-c2ccc(OC)cc2)nc1CCN,12.6%
19,N#C/C(=C/c1ccc(O)c(O)c1)C(=O)NCc1ccc(Cl)cc1,-6.5%
20,c1cn(-c2ccc(-c3ccnc4ncnn34)cc2)cn1,-27.2%
21,COc1ccc(S(=O)(=O)Nc2ccc(CC#N)cc2)cc1,14.9%
22,Cc1cc2c(c(SCC(=O)NCc3ccc(Cl)cc3)n1)C(=O)OC2,13.7%
23,COC(=O)c1ccc(C2C(C#N)=C(C)NC3=C2C(=O)CC(C)(C)C3)cc1 (centres unmarked),2.72%
